PubChem BioAssay AID504832 (National Center for Advancing Translational Sciences (NCATS), 2011)
Hit rate of the full screen: of about 310,000 compounds, about 18,000 (5.8%) were called active. The shares of active, inactive and inconclusive entries below differ from those in the screen. The call rests on the fitted dose curve; in most records, active means well fitted inhibition curve with a large enough effect; inconclusive means small, poorly fitted or top-dose-only effect, or another doubt; inactive means no such curve, though single readings can be large or run the other way. No potency is given beside an inconclusive call; the fits are too rough.

Assay: Primary qHTS for delayed death inhibitors of the malarial parasite plastid, 48 hour incubation
Details: P. falciparum luciferase growth in erythrocytes; series mostly up to 28.7 µM
In short: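 Luciferase-expressing P. falciparum in infected erythrocytes (2% hematocrit, 0.1% parasitemia final) in RPMI 1640/0.5% Albumax were exposed to compound for 48 hours at 37 C, 5% CO2; growth read as luminescence.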
Potency means the concentration at half of the fitted maximal effect; tags describe the fitted curve by direction and shape.

Row | Compound | Potency
1 | CCCC(C)NC(=O)c1cc(S(=O)(=O)N2CCCCCC2)ccc1OC (stereo not drawn) | inconclusive [inhibitor, partial curve, poor fit]
2 | Cc1ccc(S(=O)(=O)N(C(=O)c2ccco2)c2cc3sc(=O)oc3c3ccccc23)cc1 | active: 10.4 µM
3 | CCOCCn1c(C)c(C(=O)OCC)c2cc(O)c3ccccc3c21 | active: 2.33 µM
4 | CSCC[C@H](NC(=O)CCNC(C)=O)c1nc2ccccc2[nH]1 | inactive
5 | CCOc1ccc(N(CC(=O)Nc2ccc(Br)cc2)S(C)(=O)=O)cc1 | inactive
6 | O=C(N/C(=C/c1ccco1)C(=O)N1CCCC1)c1cccs1 | inconclusive [inhibitor, single point]
7 | CNC(=S)NCC(O)c1ccc([N+](=O)[O-])cc1 (stereo not drawn) | inactive
8 | COc1cccc2sc(Nc3nc4ccc(NC(C)=O)cc4s3)nc12 | inconclusive [inhibitor, single point]
9 | CC1=C(C(=O)NC(C)c2ccc3c(c2)OCCO3)C2(CCC(C)CC2)OC1=O (stereo not drawn) | inconclusive [inhibitor, single point]
10 | COc1cc2cc(CN(Cc3cccnc3)C(=O)Nc3ccccc3F)c(=O)[nH]c2cc1OC | active: 7.38 µM
11 | Cc1cccc(NC(=O)CSCC(=O)N2CCN(c3cccc(C(F)(F)F)c3)CC2)c1 | inconclusive [inhibitor, single point]
12 | Cc1ccc(C(=O)NCc2ccccc2)cc1Br | inactive
13 | CCCc1ccc(OCc2ccc(C(=O)N3CCCC3)o2)cc1 | active: 10.4 µM
14 | O=[N+]([O-])c1c(NCCCO)cc(N2CCN(Cc3ccc4c(c3)OCO4)CC2)c2nonc12 | inconclusive [inhibitor, single point]
15 | CCCn1c(NC(=S)Nc2ccccc2)nc2ccccc21 | inconclusive [inhibitor, partial curve, poor fit]
16 | Cc1ccc(CNC(=O)C2CCN(C(=O)Nc3ccc(C)cc3)CC2)cc1 | inactive
17 | CCOC(=O)[C@@H](C)N(Cc1ccc(OC)cc1)S(=O)(=O)N(Cc1ccccc1)[C@H](C(=O)OC)C(C)C | active: 10.4 µM
18 | COc1cccc(C(=O)NC2CC3CCCC(C2)N3CC(=O)Nc2ccc(N(C)C)cc2)c1 (stereo not drawn) | inconclusive [inhibitor, partial curve, poor fit]
19 | CCCCCOC(=O)c1c(N)n(CCOC)c2nc3ccccc3nc12 | inconclusive [inhibitor, single point]
20 | COC(=O)C1=CN(Cc2ccc(OC)cc2)C=C(C(=O)OC)C1c1cc(OC)c(OC)c(OC)c1 | active: 1.31 µM
21 | O=C(COC(=O)c1ccc(OC(F)(F)F)cc1)NCCN1C(=O)CSC1=O | inactive
22 | COC(=O)C1C(=O)C=C(Nc2ccc(F)cc2F)CC1c1ccccc1 (stereo not drawn) | inactive
23 | O=[N+]([O-])c1ccc(N2CCN(c3ccccc3F)CC2)c(S(=O)(=O)N2CCOCC2)c1 | inconclusive [inhibitor, single point]
24 | Cc1ccc(C)c(NC(=O)c2ncn[nH]2)c1 | inactive
25 | CCOc1ccc2oc(C(=O)OCC(=O)N3C(C)CCCC3C)c(C)c2c1 (stereo not drawn) | inconclusive [inhibitor, partial curve, poor fit]

Row | Compound | Potency
26 | Cn1c(CNc2nc3ccccc3n2CCN2CCCCC2)nc2ccccc21 | active: 11.7 µM
27 | COc1ccccc1-c1c(C(F)(F)F)oc2cc(OS(C)(=O)=O)ccc2c1=O | inactive
28 | CC(=O)Nc1ccccc1-c1nc2ccccc2nc1OCC(=O)c1ccc2ccccc2c1 | inconclusive [inhibitor, partial curve, poor fit]
29 | CCn1c(Sc2ccc(N)cc2Cl)nc2ccccc21 | inactive
30 | O=[N+]([O-])c1ccc(O)c(/C=N/NC2=NS(=O)(=O)c3ccccc32)c1 | active: 2.62 µM
31 | CCCn1c(NC(=O)CN2C(=O)NC3(CCCCC3)C2=O)nc2ccccc21 | inconclusive [inhibitor, single point]
32 | O=C(CSC1=NS(=O)(=O)c2ccccc2N1)NCc1ccc(F)cc1 | inactive
33 | CCc1nnc(NC(=O)C2CCN(C(=O)NC3CCCCC3)CC2)s1 | inconclusive [inhibitor, full curve, poor fit]
34 | COc1cc(OC)c2c(-c3ccccc3)cc(=O)oc2c1C(CC(=O)N1CCCC1)c1ccc2c(c1)OCO2 (stereo not drawn) | active: 9.28 µM
35 | Cc1cc(C)nc(/N=c2/ssnc2Cl)c1 | inactive
36 | CC1CCN(c2nc3c(cc2C#N)COC(C)(C)C3)CC1 | inconclusive [inhibitor, single point]
37 | Cc1ccc(C(=O)Nc2cccc(-c3cnc4ccccc4n3)c2)cc1 | inactive
38 | CCCCn1c(-c2cccnc2)nc2cc3[nH]c(=O)c(C(C)C)nc3cc21 | inconclusive [inhibitor, single point]
39 | CCO[C@@H]1OC(C(=O)N2CCN(Cc3ccccc3)CC2)=C[C@H](C)[C@H]1CCCO | inconclusive [inhibitor, full curve, poor fit]
40 | CC(C)NC(=S)N1CCN(C(c2ccccc2)c2ccccc2)CC1 | inconclusive [inhibitor, single point]
41 | COC(=O)c1ccc(OC(=O)C23CCC(C)(C(=O)O2)C3(C)C)cc1 (stereo not drawn) | inactive
42 | C/C(=N\NC(=O)c1ccc(NS(=O)(=O)c2cccs2)cc1)c1ccccn1 | inconclusive [inhibitor, partial curve, poor fit]
43 | CC(=O)c1ccc(-n2nnnc2SCC(=O)N2CCc3ccccc3C2)cc1 | inconclusive [inhibitor, single point]
44 | CC(=O)Nc1ccc(NC(=O)COC(=O)CCNS(=O)(=O)c2c(Cl)cccc2Cl)cc1 | inactive
45 | Cc1nnc(NC(=O)Nc2cccc(Cl)c2)s1 | inconclusive [inhibitor, single point]
46 | COc1ccccc1N1CCN(C(=O)c2ccc(-c3ccccc3)cc2)CC1 | inactive
47 | CC/C(=N\NC(=S)Nc1cc(C)ccc1C)c1ccc(OC(F)F)cc1 | inconclusive [inhibitor, single point]
48 | CCOC(=O)c1c(NC(=O)CSc2cn(CC)c3ccccc23)sc2c1CCC2 | inconclusive [inhibitor, single point]
49 | COC(=O)c1ccc(NC(=O)CCCCCn2nnc3ccccc3c2=O)cc1 | active: 5.22 µM
50 | NNC(=O)COc1ccccc1[N+](=O)[O-] | inactive

Row | Compound | Potency
51 | COc1cc2c(cc1OC)CN(c1nc(CN3CCOCC3)nc3sc4c(c13)CCCC4)CC2 | active: 9.28 µM
52 | CC(C)C(=O)Nc1ccc(Sc2ccc(F)cc2)cc1 | inconclusive [inhibitor, partial curve, poor fit]
53 | Clc1ccc(Oc2cnc3ccccc3n2)cc1 | inactive
54 | OCCN1CCN(c2nc(-c3ccccc3)c3cc(Br)ccc3n2)CC1 | inconclusive [inhibitor, partial curve, poor fit]
55 | O=C(O)c1ccc2c3c(ncnc13)-c1ccccc1C2=O | inconclusive [inhibitor, single point]
56 | CC(=O)c1cccc(Nc2nc(-c3ccccc3)nc3ccccc23)c1 | inconclusive [inhibitor, partial curve, poor fit]
57 | COc1cccc(C(=O)CN2C3=NCCCN3c3ccccc32)c1 | inconclusive [inhibitor, partial curve]
58 | C[C@H](NC(=O)c1nc[nH]c1C(=O)N1CCNCC1)C(=O)OCc1ccccc1 | inconclusive [inhibitor, single point]
59 | COc1ccccc1NC(=O)CN1CCN(S(=O)(=O)c2ccc(Br)cc2)CC1 | inconclusive [inhibitor, full curve]
60 | COc1ccccc1/C=C/c1onc(C)c1S(=O)(=O)N1CCC(C(=O)NC(C)C)CC1 | inconclusive [inhibitor, partial curve]
61 | O=P(O)(O)OC[C@H](O)CO | inconclusive [inhibitor, partial curve]
62 | COC(=O)C1=C(Nc2ccc(C)cc2)C=C(C)C(C(=O)OC)C1c1cccc(OC)c1 (stereo not drawn) | active: 2.62 µM
63 | CCN(CC)CCNC(=O)CCc1c(C)nc2c(c(C)nn2-c2ccc(C)c(C)c2)c1C | active: 13.1 µM
64 | Cc1ccccc1C(=O)NNC(=O)/C=C/c1ccccc1 | inactive
65 | COc1ccc(Br)cc1CN(C)C(=O)c1cc(Cl)c2c(c1)OCCO2 | inconclusive [inhibitor, partial curve, poor fit]
66 | CCc1ccc(C(=O)N/N=C/c2cccc3ccccc23)nc1 | inactive
67 | O=C(NC1CCCCC1)N1CCC(c2nc(-c3ccc(S(=O)(=O)N4CCCC4)cc3)no2)CC1 | inconclusive [inhibitor, full curve, poor fit]
68 | CCOC(=O)C1CCN(C(=S)Nc2cccc(C)c2)CC1 | inactive
69 | CC(=O)NC(CCS(C)(=O)=O)C(=O)Nc1ccc(F)cc1Cl (stereo not drawn) | inconclusive [inhibitor, partial curve]
70 | CCN(CC)C(=O)CSc1nc2cc3c(cc2c(=O)n1CCCC(=O)NCc1ccc(OC)cc1)OCO3 | inactive
71 | COc1ccc(OC)c(NC(=O)Cc2c(C(=O)O)n(C)c3ccccc23)c1 | inactive
72 | Oc1ccccc1C1CC(c2cccs2)=NC(c2cccc(Br)c2)N1 (stereo not drawn) | inconclusive [inhibitor, partial curve, poor fit]
73 | COc1ccc(-c2csc(N=C(N)N)n2)cc1 | inconclusive [inhibitor, single point]
